Reference: PMC4336329 (PLoS ONE, 2015)
Out of some 310,000 compounds screened, about 2,200 (0.71%) showed an effect of 50% or more. The effect is printed as a negative number. The list shows a part of the results.

The molecules below were run against human ether-à-go-go-related gene (hERG) potassium channel (human, UniProt Q12809) (assay: primary screen, population patch clamp on CHO cells stably expressing hERG).
Chain of human ether-à-go-go-related gene (hERG) potassium channel (Q12809 whole entry, looked up): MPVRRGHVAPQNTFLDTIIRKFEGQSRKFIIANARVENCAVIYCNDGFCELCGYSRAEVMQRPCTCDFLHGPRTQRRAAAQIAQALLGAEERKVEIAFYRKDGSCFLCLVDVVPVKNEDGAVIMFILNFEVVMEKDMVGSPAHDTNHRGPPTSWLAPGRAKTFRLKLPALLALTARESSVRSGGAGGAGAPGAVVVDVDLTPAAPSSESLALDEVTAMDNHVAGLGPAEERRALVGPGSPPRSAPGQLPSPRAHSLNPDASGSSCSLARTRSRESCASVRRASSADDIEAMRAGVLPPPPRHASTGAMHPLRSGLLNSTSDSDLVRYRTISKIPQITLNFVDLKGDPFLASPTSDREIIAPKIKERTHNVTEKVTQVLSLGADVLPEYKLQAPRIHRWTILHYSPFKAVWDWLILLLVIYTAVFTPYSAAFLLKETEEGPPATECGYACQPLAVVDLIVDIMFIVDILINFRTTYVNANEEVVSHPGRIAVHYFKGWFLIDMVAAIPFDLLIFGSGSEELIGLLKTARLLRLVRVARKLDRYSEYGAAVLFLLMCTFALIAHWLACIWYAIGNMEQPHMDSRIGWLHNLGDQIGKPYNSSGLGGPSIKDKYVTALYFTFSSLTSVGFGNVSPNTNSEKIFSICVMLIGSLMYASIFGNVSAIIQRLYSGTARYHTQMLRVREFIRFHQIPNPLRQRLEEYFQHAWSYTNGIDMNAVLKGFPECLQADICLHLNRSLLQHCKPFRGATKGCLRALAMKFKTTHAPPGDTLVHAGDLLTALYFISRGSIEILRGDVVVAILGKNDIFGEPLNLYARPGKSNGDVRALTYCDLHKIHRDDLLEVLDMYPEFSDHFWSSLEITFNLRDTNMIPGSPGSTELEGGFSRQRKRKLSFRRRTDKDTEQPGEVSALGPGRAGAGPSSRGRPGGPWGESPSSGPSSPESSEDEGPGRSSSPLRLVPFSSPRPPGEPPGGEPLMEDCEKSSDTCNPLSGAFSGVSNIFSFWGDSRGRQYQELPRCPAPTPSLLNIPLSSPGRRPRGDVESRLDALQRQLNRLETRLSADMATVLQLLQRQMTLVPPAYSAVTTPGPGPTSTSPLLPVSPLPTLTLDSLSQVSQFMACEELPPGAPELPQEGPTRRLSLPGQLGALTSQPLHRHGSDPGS

Compound | hERG current change (%, negative = inhibition) at 1uM [%]
CCOC(=O)c1c(NC(=O)C(C)Sc2cccc[n+]2[O-])sc2c1CCN(Cc1ccccc1)C2 (centres unmarked) | 1.96
O=C(Nc1cc(Br)c(O)c(Br)c1)c1cccc(NC(=O)c2ccco2)c1 | 0.975
Cc1nn(Cc2ccccc2Cl)c(Cl)c1C(=O)NCCc1ccccc1 | 15.1
Cc1cc(C)nc(NS(=O)(=O)c2ccc(NC(=O)C3(c4ccc([N+](=O)[O-])cc4)CCCC3)cc2)n1 | 8.31
CCCCCC(C)NC(=S)NC(=O)c1cc(S(=O)(=O)N2CCOCC2)ccc1C (centres unmarked) | 4.22
COC(=O)c1ccc(CN2[C@H](C(=O)OC)C[C@@]3(O)[C@@H](O)[C@@H](O)[C@@H](O)C[C@@H]23)cc1 | 9.77
COC(=O)c1ccccc1NC(=O)CC(=O)Nc1ccccc1C(=O)OC | 7.96
COC(=O)[C@]1(C)CCC[C@@]2(C)C3CC[C@@]4(C)C[C@]3(CCC21)CC(=O)N4C (some centres unmarked) | 7.69
O=C(c1cc(-c2cccnc2)nc2ccc(Cl)cc12)N1CCN(S(=O)(=O)c2cccs2)CC1 | 14.6
O=C(O)CC1=C(Nc2ccccc2)C(=O)N(c2ccccc2)C1c1ccc(Cl)cc1 (centres unmarked) | 11.1
Cc1c(Cl)cccc1NC(=O)CCN1CCN(CCO)CC1.Cl | 19.6
O=C(Nc1cccc(C(=O)N2CCN(Cc3ccccc3)CC2)c1)c1ccccc1 | 6.98
CC(Cn1cnc2ccccc21)C(=O)O (centres unmarked) | 14.2
CN1CCCCCC1=NC1=C(C#N)CCCC1 | 5.1
CCOC(=O)c1c(C)[nH]c(C)c1C(=O)COC(=O)c1ccc(O)cc1 | 3.94
CCN(C(=O)CSc1nc2nc(C)cc(C)n2n1)c1ccccc1 | 2.61
CC(C)NC(=O)NC(=O)CSc1ncc(C(F)(F)F)cc1Cl | 2.44
O=C(COC(=O)/C=C/c1ccc(Cl)cc1Cl)Nc1ccc2c(c1)OCCO2 | 12.9
O=C(c1ccc(Cl)cc1)C1CCN(CC(=O)N2CCCCC2)CC1 | -5.02
CCC(C(=O)NC1CCCCC1)N(C(=O)c1snc(C(N)=O)c1N)c1ccc(OC)cc1OC (centres unmarked) | -2.54
Cc1nn(C)c(C)c1NC(=O)c1ccccc1NC(=O)Nc1ccccc1 | 13.3
Cc1cc(C)nc(SCC(CSc2nc(C)cc(C)n2)C(=O)O)n1 | 14.3
CCOC(=O)C1=C(C)N(C)C(=S)NC1c1ccccc1 (centres unmarked) | 6.83
Cc1noc(C)c1COc1ccc(C(=O)Nc2nnc(CC(C)C)s2)cc1 | 11.3
CCCc1cc(=O)n2[nH]c(C)c(-c3ccc(Cl)cc3)c2n1 | -11.7
CCCCOc1ccc(S(=O)(=O)n2c(C)nc3ccccc32)cc1 | 4.6
COc1cc(NC(=O)CSc2ccc(-c3cccnc3)nn2)cc(OC)c1 | 10.8

Compound | hERG current change (%, negative = inhibition) at 1uM [%]
O=C(/C=C/c1ccc([N+](=O)[O-])cc1)NCCN1C(=O)S/C(=C\c2ccc(F)cc2)C1=O | 2.19
O=C(O)c1ccc[n+](Cc2ccc([N+](=O)[O-])cc2)c1.[Br-] | 13.7
CCc1nccn1S(=O)(=O)c1cc(C)c(OC)cc1C | 3.77
O=C(NC1CCCCC1)C(c1ccc(F)cc1)N(Cc1ccco1)C(=O)c1csnn1 (centres unmarked) | 5.88
CCN(Cc1ccc(OC)c(F)c1)C(=O)c1oc2ccccc2c1COC | -2.28
COc1cc(C(=O)OCCn2c(=O)c3c(ncn3CCN(C)C)n(C)c2=O)cc(OC)c1OC.Cl | 11.1
O=C(Nc1ccc(F)cc1F)NC1CCN(Cc2c(F)cccc2Cl)CC1 | 8.67
Oc1ccc(-c2[nH]ncc2-c2cnn(-c3ccccc3)c2)c(O)c1 | 7.88
CCOc1cc(/C=N/NC(=O)c2ccncc2)ccc1OC(=O)c1ccco1 | -9.82
O=C(Cc1ccccc1)NN1CCCCC1 | 10.5
c1ccc(-c2cc(-c3nnc4n3N=C(c3ccc5ccccc5c3)CS4)[nH]n2)cc1 | 3.95
O=C(OCCN=C1NS(=O)(=O)c2ccccc21)C1CC(=O)N(c2ccc3ccccc3c2)C1 (centres unmarked) | 0.0653
S=c1[nH]nc(COc2ccc(Cl)cc2)n1-c1ccc(Cl)cc1 | 15.8
CC1CCC(N2CCN(C(=O)COc3ccccc3)CC2)CC1.O=C(O)C(=O)O (centres unmarked) | -2.59
Cc1ccc(S(=O)(=O)CCSc2nc(C)cc(C)c2C#N)cc1 | 17.8
CCN(C(=O)CSc1nc2cc(S(=O)(=O)N(CC)CC)ccc2o1)C1CCS(=O)(=O)C1 (centres unmarked) | 5.23
Cc1cc(C)n2nc(C(=O)Nc3ccc4c(c3)OCO4)nc2n1 | 7.79
CC(=O)c1sc(NC(=O)C2CCN(c3ncnc4sc(C)c(C)c34)CC2)nc1-c1ccccc1 | 8.76
Cc1ccc(/C=C2\SC(=S)N(CCCC(=O)Nc3ccccc3C(=O)O)C2=O)cc1 | -5.37
FC(F)(F)c1nnc2ccc(NCc3cccnc3)nn12 | 13.2
CC1(C)N=C(N)N=C(N)N1c1ccccc1.Cl | 21.2
C=CCC(C(=O)c1ccccc1)[N+](C)(C)CC=C.[Br-] (centres unmarked) | 4.96
O=C(NCC1CCCO1)C(c1ccc(F)cc1)N(CCCN1CCOCC1)C(=O)c1ccc(-c2ccccc2)[nH]1 (centres unmarked) | -2.25
CCOC(=O)c1sc(NC(=O)C2CC(=O)N(c3ccc4c(c3)OCCO4)C2)nc1C (centres unmarked) | 6.82
CC(=O)Nc1ccc(S(=O)(=O)NCc2cc(=O)n(C)c(=O)n2C)cc1 | 12
Cc1cccc(NC(=O)c2ccc(NCC3CCCO3)c([N+](=O)[O-])c2)n1 (centres unmarked) | 17.5
